Reference: the supplement of paper PMC8728848
This is one part of the list.

Experiments:
Experiment in all cases: glycan array binding signal (z-score within array); higher = stronger binding
Conditions in all cases: glycan notation: IUPAC condensed, linker removed
[1] = target: Gal(b1-4)GlcNAc(b1-3)Gal(b1-4)GlcNAc(b1-2)Man(a1-3)[Gal(b1-4)GlcNAc(b1-3)Gal(b1-4)GlcNAc(b1-2)Man(a1-6)]Man(b1-4)GlcNAc(b1-4)[Fuc(a1-6)]GlcNAc
Method in brief: (§1)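 Columns mapping to the same glycan were averaged after glycan names were converted to IUPAC-condensed notation. The data come from 3228 arrays in the Consortium for Functional Glycomics database, limited to those with an available protein sequence. Binding is reported as a within-array Z-score averaged across arrays of one protein sequence and across linkers.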

[2] = target: Gal(b1-4)GlcNAc(b1-3)Gal(b1-4)GlcNAc(b1-2)[Gal(b1-4)GlcNAc(b1-3)Gal(b1-4)GlcNAc(b1-6)]Man(a1-6)[Gal(b1-4)GlcNAc(b1-3)Gal(b1-4)GlcNAc(b1-2)Man(a1-3)]Man(b1-4)GlcNAc(b1-4)GlcNAc
Method in brief: as §1

[3] = target: Gal(b1-4)GlcNAc(b1-3)Gal(b1-4)GlcNAc(b1-2)[Gal(b1-4)GlcNAc(b1-3)Gal(b1-4)GlcNAc(b1-6)]Man(a1-6)[Gal(b1-4)GlcNAc(b1-3)Gal(b1-4)GlcNAc(b1-2)Man(a1-3)]Man(b1-4)GlcNAc(b1-4)[Fuc(a1-6)]GlcNAc
Method in brief: as §1

[4] = target: Gal(b1-4)GlcNAc(b1-3)Gal(b1-4)GlcNAc(b1-3)Gal(b1-4)GlcNAc
Method in brief: as §1

[5] = target: Gal(b1-4)GlcNAc(b1-3)Gal(b1-4)GlcNAc(b1-3)Gal(b1-4)GlcNAc(b1-2)Man(a1-3)[Gal(b1-4)GlcNAc(b1-3)Gal(b1-4)GlcNAc(b1-3)Gal(b1-4)GlcNAc(b1-2)Man(a1-6)]Man(b1-4)GlcNAc(b1-4)GlcNAc
Method in brief: as §1

[6] = target: Gal(b1-4)GlcNAc(b1-3)Gal(b1-4)GlcNAc(b1-3)Gal(b1-4)GlcNAc(b1-2)Man(a1-3)[Gal(b1-4)GlcNAc(b1-3)Gal(b1-4)GlcNAc(b1-3)Gal(b1-4)GlcNAc(b1-2)Man(a1-6)]Man(b1-4)GlcNAc(b1-4)[Fuc(a1-6)]GlcNAc
Method in brief: as §1

[7] = target: Gal(b1-4)GlcNAc(b1-3)Gal(b1-4)GlcNAc(b1-3)Gal(b1-4)GlcNAc(b1-2)[Gal(b1-4)GlcNAc(b1-3)Gal(b1-4)GlcNAc(b1-3)Gal(b1-4)GlcNAc(b1-6)]Man(a1-6)[Gal(b1-4)GlcNAc(b1-3)Gal(b1-4)GlcNAc(b1-3)Gal(b1-4)GlcNAc(b1-2)Man(a1-3)]Man(b1-4)GlcNAc(b1-4)[Fuc(a1-6)]GlcNAc
Method in brief: as §1

[8] = target: Gal(b1-4)GlcNAc(b1-3)Gal(b1-4)GlcNAc(b1-3)Gal(b1-4)GlcNAc(b1-3)Gal(b1-4)GlcNAc(b1-2)Man(a1-3)[Gal(b1-4)GlcNAc(b1-3)Gal(b1-4)GlcNAc(b1-3)Gal(b1-4)GlcNAc(b1-3)Gal(b1-4)GlcNAc(b1-2)Man(a1-6)]Man(b1-4)GlcNAc(b1-4)GlcNAc
Method in brief: as §1

[9] = target: Gal(b1-4)GlcNAc(b1-3)Gal(b1-4)GlcNAc(b1-3)Gal(b1-4)GlcNAc(b1-3)Gal(b1-4)GlcNAc(b1-2)Man(a1-3)[Gal(b1-4)GlcNAc(b1-3)Gal(b1-4)GlcNAc(b1-3)Gal(b1-4)GlcNAc(b1-3)Gal(b1-4)GlcNAc(b1-2)Man(a1-6)]Man(b1-4)GlcNAc(b1-4)[Fuc(a1-6)]GlcNAc
Method in brief: as §1

[10] = target: Gal(b1-4)GlcNAc(b1-3)Gal(b1-4)GlcNAc(b1-3)Gal(b1-4)GlcNAc(b1-3)Gal(b1-4)GlcNAc(b1-2)[Gal(b1-4)GlcNAc(b1-3)Gal(b1-4)GlcNAc(b1-3)Gal(b1-4)GlcNAc(b1-3)Gal(b1-4)GlcNAc(b1-6)]Man(a1-6)[Gal(b1-4)GlcNAc(b1-3)Gal(b1-4)GlcNAc(b1-3)Gal(b1-4)GlcNAc(b1-3)Gal(b1-4)GlcNAc(b1-2)Man(a1-3)]Man(b1-4)GlcNAc(b1-4)[Fuc(a1-6)]GlcNAc
Method in brief: as §1

[11] = target: Gal(b1-4)GlcNAc(b1-3)Gal(b1-4)GlcNAc(b1-3)Gal(b1-4)GlcNAc(b1-3)Gal(b1-4)GlcNAc(b1-3)Gal(b1-4)GlcNAc(b1-2)Man(a1-3)[Gal(b1-4)GlcNAc(b1-3)Gal(b1-4)GlcNAc(b1-3)Gal(b1-4)GlcNAc(b1-3)Gal(b1-4)GlcNAc(b1-3)Gal(b1-4)GlcNAc(b1-2)Man(a1-6)]Man(b1-4)GlcNAc(b1-4)GlcNAc
Method in brief: as §1

[12] = target: Gal(b1-4)GlcNAc(b1-3)Gal(b1-4)GlcNAc(b1-3)Gal(b1-4)GlcNAc(b1-3)Gal(b1-4)GlcNAc(b1-3)Gal(b1-4)GlcNAc(b1-2)Man(a1-3)[Gal(b1-4)GlcNAc(b1-3)Gal(b1-4)GlcNAc(b1-3)Gal(b1-4)GlcNAc(b1-3)Gal(b1-4)GlcNAc(b1-3)Gal(b1-4)GlcNAc(b1-2)Man(a1-6)]Man(b1-4)GlcNAc(b1-4)[Fuc(a1-6)]GlcNAc
Method in brief: as §1

[13] = target: Gal(b1-4)GlcNAc(b1-3)Gal(b1-4)GlcNAc(b1-3)Gal(b1-4)GlcNAc(b1-3)Gal(b1-4)GlcNAc(b1-3)Gal(b1-4)GlcNAc(b1-2)[Gal(b1-4)GlcNAc(b1-3)Gal(b1-4)GlcNAc(b1-3)Gal(b1-4)GlcNAc(b1-3)Gal(b1-4)GlcNAc(b1-3)Gal(b1-4)GlcNAc(b1-6)]Man(a1-6)[Gal(b1-4)GlcNAc(b1-3)Gal(b1-4)GlcNAc(b1-3)Gal(b1-4)GlcNAc(b1-3)Gal(b1-4)GlcNAc(b1-3)Gal(b1-4)GlcNAc(b1-2)Man(a1-3)]Man(b1-4)GlcNAc(b1-4)[Fuc(a1-6)]GlcNAc
Method in brief: as §1

[14] = target: Gal(b1-4)GlcNAc(b1-3)Gal(b1-4)GlcNAc(b1-3)Gal(b1-4)GlcNAc(b1-3)Gal(b1-4)GlcNAc(b1-3)Gal(b1-4)GlcNAc(b1-3)Gal(b1-4)GlcNAc(b1-2)Man(a1-3)[Gal(b1-4)GlcNAc(b1-3)Gal(b1-4)GlcNAc(b1-3)Gal(b1-4)GlcNAc(b1-3)Gal(b1-4)GlcNAc(b1-3)Gal(b1-4)GlcNAc(b1-3)Gal(b1-4)GlcNAc(b1-2)Man(a1-6)]Man(b1-4)GlcNAc(b1-4)GlcNAc
Method in brief: as §1

[15] = target: Gal(b1-4)GlcNAc(b1-3)Gal(b1-4)GlcNAc(b1-3)GalNAc
Method in brief: as §1

[16] = target: Gal(b1-4)GlcNAc(b1-3)Gal(b1-4)GlcNAc(b1-3)[Gal(b1-4)GlcNAc(b1-3)Gal(b1-4)GlcNAc(b1-6)]GalNAc
Method in brief: as §1

[17] = target: Gal(b1-4)GlcNAc(b1-3)Gal(b1-4)GlcNAc(b1-6)[Gal(b1-3)]GalNAc
Method in brief: as §1

[18] = target: Gal(b1-4)GlcNAc(b1-3)Gal(b1-4)[Fuc(a1-3)GlcNAc(b1-6)]Gal(b1-4)Glc
Method in brief: as §1

[19] = target: Gal(b1-4)GlcNAc(b1-3)Gal(b1-4)[Fuc(a1-3)]GlcNAc(b1-3)Gal(b1-4)[Fuc(a1-3)]GlcNAc
Method in brief: as §1

[20] = target: Gal(b1-4)GlcNAc(b1-3)GalNAc
Method in brief: as §1

[21] = target: Gal(b1-4)GlcNAc(b1-3)[Fuc(a1-3)GlcNAc(b1-6)]Gal(b1-4)Glc
Method in brief: as §1

[22] = target: Gal(b1-4)GlcNAc(b1-3)[Gal(b1-4)GlcNAc(b1-6)]Gal(b1-4)GlcNAc
Method in brief: as §1

[23] = target: Gal(b1-4)GlcNAc(b1-3)[Gal(b1-4)GlcNAc(b1-6)]GalNAc
Method in brief: as §1

[24] = target: Gal(b1-4)GlcNAc(b1-3)[GlcNAc(b1-6)]Gal(b1-4)GlcNAc
Method in brief: as §1

[25] = target: Gal(b1-4)GlcNAc(b1-6)Gal(b1-4)GlcNAc
Method in brief: as §1

[26] = target: Gal(b1-4)GlcNAc(b1-6)GalNAc
Method in brief: as §1

[27] = target: Gal(b1-4)GlcNAc(b1-6)[Gal(b1-3)]GalNAc
Method in brief: as §1

[28] = target: Gal(b1-4)GlcNAc(b1-6)[Gal(b1-4)GlcNAc(b1-3)]GalNAc
Method in brief: as §1

Gal(b1-4)GlcNAc6P = target: Gal(b1-4)GlcNAc6P
Method in brief: as §1

Gal(b1-6)Gal = target: Gal(b1-6)Gal
Method in brief: as §1

Gal3S(b1-3)GalNAc = target: Gal3S(b1-3)GalNAc
Method in brief: as §1

Gal3S(b1-3)GlcNAc = target: Gal3S(b1-3)GlcNAc
Method in brief: as §1

[29] = target: Gal3S(b1-3)[Fuc(a1-4)]GlcNAc
Method in brief: as §1

Gal3S(b1-4)Glc = target: Gal3S(b1-4)Glc
Method in brief: as §1

Gal3S(b1-4)Glc6S = target: Gal3S(b1-4)Glc6S
Method in brief: as §1

Gal3S(b1-4)GlcNAc = target: Gal3S(b1-4)GlcNAc
Method in brief: as §1

Gal3S(b1-4)GlcNAc6S = target: Gal3S(b1-4)GlcNAc6S
Method in brief: as §1

[30] = target: Gal3S(b1-4)[Fuc(a1-3)]Glc
Method in brief: as §1

[31] = target: Gal3S(b1-4)[Fuc(a1-3)]Glc6S
Method in brief: as §1

[32] = target: Gal3S(b1-4)[Fuc(a1-3)]GlcNAc
Method in brief: as §1

[33] = target: Gal3S(b1-4)[Fuc(a1-3)]GlcNAc6S
Method in brief: as §1

Gal3S4S(b1-4)GlcNAc = target: Gal3S4S(b1-4)GlcNAc
Method in brief: as §1

Gal3S6S(b1-4)GlcNAc = target: Gal3S6S(b1-4)GlcNAc
Method in brief: as §1

Gal3S6S(b1-4)GlcNAc6S = target: Gal3S6S(b1-4)GlcNAc6S
Method in brief: as §1

Gal4S(b1-4)GlcNAc = target: Gal4S(b1-4)GlcNAc
Method in brief: as §1

B1: OrysaEULS2 (Oryza sativa) (protein)
chain: MVYCRANPNYAMTARNGAVVLAPANPKDEYQHWIKDMRWSTSIKDEEGYPAFALVNKATGQAIKHSLGQSHPVRLVPYNPEVMDESVLWTESRDVGNGFRCIRMVNNIYLNFDAFHGDKYHGGVRDGTDIVLWKWCEGDNQRWKIQPYYILEQKLISEEDLNSAVDHHHHHH
- glycan array binding signal (z-score) [1]: 0.18
- glycan array binding signal (z-score) [2]: -0.109
- glycan array binding signal (z-score) [3]: 0.319
- glycan array binding signal (z-score) [4]: -0.192
- glycan array binding signal (z-score) [5]: 0.319
- glycan array binding signal (z-score) [6]: -0.09
- glycan array binding signal (z-score) [7]: 0.086
- glycan array binding signal (z-score) [8]: 0.354
- glycan array binding signal (z-score) [9]: -0.068
- glycan array binding signal (z-score) [10]: -0.035
- glycan array binding signal (z-score) [11]: 0.101
- glycan array binding signal (z-score) [12]: -0.038
- glycan array binding signal (z-score) [13]: -0.086
- glycan array binding signal (z-score) [14]: 0.291
- glycan array binding signal (z-score) [15]: -0.221
- glycan array binding signal (z-score) [16]: -0.218
- glycan array binding signal (z-score) [17]: -0.172
- glycan array binding signal (z-score) [18]: -0.175
- glycan array binding signal (z-score) [19]: -0.192
- glycan array binding signal (z-score) [20]: -0.186
- glycan array binding signal (z-score) [21]: -0.291
- glycan array binding signal (z-score) [22]: -0.203
- glycan array binding signal (z-score) [23]: -0.183
- glycan array binding signal (z-score) [24]: -0.194
- glycan array binding signal (z-score) [25]: -0.208
- glycan array binding signal (z-score) [26]: -0.2
- glycan array binding signal (z-score) [27]: -0.206
- glycan array binding signal (z-score) [28]: -0.199
- glycan array binding signal (z-score) (Gal(b1-4)GlcNAc6P): -0.189
- glycan array binding signal (z-score) (Gal(b1-6)Gal): -0.21
- glycan array binding signal (z-score) (Gal3S(b1-3)GalNAc): -0.186
- glycan array binding signal (z-score) (Gal3S(b1-3)GlcNAc): -0.207
- glycan array binding signal (z-score) [29]: -0.199
- glycan array binding signal (z-score) (Gal3S(b1-4)Glc): -0.179
- glycan array binding signal (z-score) (Gal3S(b1-4)Glc6S): -0.146
- glycan array binding signal (z-score) (Gal3S(b1-4)GlcNAc): -0.172
- glycan array binding signal (z-score) (Gal3S(b1-4)GlcNAc6S): -0.168
- glycan array binding signal (z-score) [30]: -0.168
- glycan array binding signal (z-score) [31]: -0.183
- glycan array binding signal (z-score) [32]: -0.254
- glycan array binding signal (z-score) [33]: 0.472
- glycan array binding signal (z-score) (Gal3S4S(b1-4)GlcNAc): -0.193
- glycan array binding signal (z-score) (Gal3S6S(b1-4)GlcNAc): -0.187
- glycan array binding signal (z-score) (Gal3S6S(b1-4)GlcNAc6S): -0.187
- glycan array binding signal (z-score) (Gal4S(b1-4)GlcNAc): -0.227
